Screen size: about 46,000 compounds; about 60 (0.1%) were called active. Not shown: some 3% with an inconclusive outcome. Calls follow the shape of the dose curve; as a rule, active = well fitted inhibition curve with a large enough effect; inconclusive = small, poorly fitted or top-dose-only effect; inactive = no such curve, though single readings can be large or run the other way. Some of the results follow.
Experiment: Primary qHTS assay for Inhibitors of ovarian cancer metastasis using an organotypic tumor microenvironment (TME) model. Also: nearly all actives have a fitted effect of over 65% in size.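 As to Potency: count of GFP cancer cells still attached after washing and fixation.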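 As to activity change, negative = inhibition: plate controls were DMSO wells for no effect and tomatine positive control wells for full effect.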
Conditions: SKOV3ip1-GFP adhesion/invasion on 3D omental model, fluorescence; series mostly up to 45.8 µM; activity change, negative = inhibition: at the top concentration
How it was run: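 Adhesion/invasion was scored as fixed GFP-labeled SKOV3ip1 cell counts (488/509 nm), normalized to DMSO and tomatine controls. Cancer cells in serum-free medium, with four compound doses (0.36-46 umol/L), sat 2 hr at RT then 16 hr at 37 C on a 48 hr fibroblast/mesothelial/ECM culture.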
Potency is read from the fitted curve at half-maximal effect.

Compound	activity change, negative = inhibition	outcome	Potency
COc1cc(OC)cc(C(=O)N2CCN(C(=O)COc3ccc(C)cc3)CC2)c1	inactive: 32.8%	–	–
CCC(=O)NCC[C@@H]1CCc2ccc3c(c21)CCO3	inactive: -2.85%	–	–
CCc1c(C)sc(NC(=O)c2cc3nc(-c4ccc(OC)cc4)cc(C(F)(F)F)n3n2)c1C(=O)OC	inactive: -2.63%	–	–
CCN(CC)c1ccc(NC(=O)Cn2nc3c(cc2=O)CCCC3)c(C)c1	inactive: 2.42%	–	–
N#Cc1nc(/C=C/c2ccc(F)cc2)oc1N1CCCCCC1	inactive: 53.3%	–	–
CC(NS(=O)(=O)c1ccc2c(c1)CCN2C(=O)CCCC(=O)O)c1ccccc1 (stereo not drawn)	inactive: -4.35%	–	–
COc1ccccc1N1CCN(C(=O)c2nn(C)c3c2CS(=O)(=O)c2ccccc2-3)CC1	inactive: -1.8%	–	–
O[C@@H](COc1cccc2ncccc12)CN1CCN(C2c3ccccc3[C@@H]3[C@H](c4ccccc42)C3(F)F)CC1 (stereo partly drawn)	inactive: -19.6%	–	–
CCCc1cc(=O)[nH]c(Nc2cc(Cl)cc(Cl)c2)n1	inactive: 3.08%	–	–
CC1=C(C(=O)Nc2ccccc2)C(c2ccc(Br)cc2)n2nc(CCCO)nc2N1 (stereo not drawn)	inactive: 0.696%	–	–
COc1ccc(-n2ncc3c2ncn2nc(-c4ccc(OC)c(OC)c4)nc32)cc1	inactive: -2.21%	–	–
CC(C)c1ccc(C2CC(=O)N3CN(C4CCCCC4)CSC3=C2C#N)cc1 (stereo not drawn)	–	inactive	–
Cc1ccccc1-c1nc(CNC(=O)NC2CCCCC2)c(C)o1	inactive: -7.66%	–	–
Cn1ccc2cc(S(=O)(=O)N3CCCC(C(=O)NCc4ccccc4F)C3)ccc21 (stereo not drawn)	inactive: -6.3%	–	–
CCOC(=O)c1ccc(NC(=O)Cc2noc3ccc(C)cc23)cc1	inactive: 2.16%	–	–
Cn1cc(S(=O)(=O)N2CCCC2)cc1C(=O)Nc1ccc(F)cc1F	inactive: -23.8%	–	–
CCN(CC)c1ccc(CN(C(=O)c2cc(=O)c3ccccc3o2)C2CCS(=O)(=O)C2)cc1 (stereo not drawn)	inactive: -14.8%	–	–
C=CC(=O)N1CCc2ccc(-n3c(=O)ccc4cnc5ccc(-c6cnn(C)c6)cc5c43)cc21	inactive: 4.2%	–	–
Cc1nn(Cc2ccc(F)cc2)c(C)c1NC(=O)c1noc2c1CCc1ccccc1-2	inactive: -5.52%	–	–
CCn1cc2nc(SCc3cc(C)ccc3C)n(Cc3ccc(Cl)cc3)c(=O)c2n1	–	inactive	–
COc1cccc(CNC(=O)CN2C(=O)COc3ccc(S(=O)(=O)N4CCCCC4)cc32)c1	–	inactive	–
O=C(C1CCN(S(=O)(=O)c2cccs2)CC1)N1CCN(c2ccccc2F)CC1	inactive: -4.7%	–	–
O=C(CCCCCn1c(=O)[nH]c2ccccc2c1=O)N1CCN(c2cccc(C(F)(F)F)c2)CC1	inactive: 11.4%	–	–
Cc1ccc(CNC(=O)CCCCCn2c(=O)c3sccc3n(CC(=O)N3CCCCC3C)c2=O)cc1 (stereo not drawn)	inactive: 8.94%	–	–

Compound	activity change, negative = inhibition	outcome	Potency
Cc1ccc(-c2nc3sc(CCNC(=O)c4ccc(F)c(F)c4)c(C)n3n2)cc1	–	inactive	–
CCCCC12CN3CC(C)(CN(C1)C3c1ccc(OCc3ccccc3)cc1)C2=O (stereo not drawn)	inactive: -4.95%	–	–
CC1=C(C(=O)Nc2ccccc2Br)C2(CCC(C)CC2)OC1=O (stereo not drawn)	inactive: -4.64%	–	–
CC(C)NC(=O)c1ccc(CSc2nc3ccncc3n2Cc2cccc(F)c2)cc1	inactive: -7.17%	–	–
CCCn1cc(S(=O)(=O)c2ccc(C)c(C)c2)c(=O)c2cc(F)c(N3CCCCC3)cc21	inactive: -8.74%	–	–
Cc1ccccc1NC(=O)c1sc2nc(-c3cc4ccccc4oc3=O)[nH]c(=O)c2c1C	–	inactive	–
CCN(C(=O)Cn1c(C(=O)OC)cc2sccc21)c1cccc(C)c1	inactive: 2.86%	–	–
Cc1ccccc1NC(=O)c1c(C)oc2ccc(O)c(CN3CCCCCC3)c12	inactive: 2.89%	–	–
COc1ccc(C)cc1NC(=O)CN(C)S(=O)(=O)c1ccc2c(c1)c(=O)n(C)c(=O)n2C	–	inactive	–
FC(F)(F)c1cccc(Nc2nc3nonc3nc2Nc2ccc(Cl)cc2)c1	–	–	active: 10 µM
Cc1nc(-c2ccc(S(=O)(=O)N3CCN(c4ccccc4F)CC3)cc2)co1	inactive: 26.4%	–	–
CCC(CC)C(=O)Nc1ccc(S(=O)(=O)N2CCC(c3nc4ccccc4s3)CC2)cc1	–	inactive	–
O=C(NC1CCCCC1)c1ccc(CSc2nc3cccnc3n2Cc2ccccc2)cc1	inactive: -19.7%	–	–
CC1=C(c2ccc(C(C)C)cc2)S(=O)(=O)N=C1N1CCC(C(=O)NCc2ccc(C)o2)CC1	inactive: 10.6%	–	–
CC(=O)Nc1cccc(NC(=O)CSc2nccn2Cc2ccccc2)c1	inactive: 3.17%	–	–
CCOC(=O)c1c(C)[nH]c(CCC(=O)NCc2ccc(OC)cc2OC)c1C	inactive: -5.97%	–	–
COc1ccc(OCCCn2c(C3CC(=O)N(c4ccc(F)cc4)C3)nc3ccccc32)cc1 (stereo not drawn)	inactive: -8.28%	–	–
Cc1nc2c(-c3ccc(F)cc3)c(C)nn2c(C)c1CCC(=O)NCc1ccc(F)cc1	–	inactive	–
Cc1ccc(CN(Cc2cccn2-c2nnc(N3CCCC3=O)s2)C(=O)Nc2ccccc2Cl)cc1	inactive: 14.9%	–	–
Cc1cc(C)c2c(NC(=O)c3ccccc3Cl)c(C(=O)NCc3ccc(Cl)cc3)sc2n1	inactive: 4.46%	–	–
O=C(COc1ccccc1-c1nc(-c2ccccc2)no1)Nc1ccc([N+](=O)[O-])cc1	inactive: -17.3%	–	–
Cc1c(CC(=O)NCCc2ccccc2)c(=O)oc2c(C)c3occ(C(C)(C)C)c3cc12	inactive: 1.14%	–	–
CCOC(=O)c1c(N)n(-c2ccc(OCC)cc2)c2nc3ccccc3nc12	–	inactive	–
Cc1cc(Nc2cc(Cl)ccc2C)n2nc(-c3ccccc3)nc2n1	inactive: -18.9%	–	–
